Assay results as given in PubChem BioAssay AID686979 (National Center for Advancing Translational Sciences (NCATS), 2013).
Out of some 420,000 compounds screened, about 50,000 (12%) were called active. Inconclusive results, whose numbers are uncertain, are shown with a selection of clear calls. Calls follow the shape of the dose curve; as a rule, active = well fitted inhibition curve with a large enough effect; inconclusive = small, poorly fitted or top-dose-only effect; inactive = flat fitted curve, though single readings scatter. No potency is given beside an inconclusive call; the fits are too rough.

Experiment: qHTS for Inhibitors of human tyrosyl-DNA phosphodiesterase 1 (TDP1): qHTS in cells in presence of CPT; also: nearly all actives have a fitted effect of over 55% in size
Conditions: chicken DT40 Tdp1-/-;hTDP1 cells + 20 nM CPT, ATP luminescence, 48 h; activity change, negative = growth inhibition: at 46.2 µM (top of the series)
Method in brief: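 Cell growth measured by CellTiter-Glo luminescence after a minimum 48 h, 37 C compound exposure with 20 nM CPT in Tdp1-knockout DT40 cells stably expressing hTDP1, seeded 400/well; qHTS titration format.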
% is scaled to controls: 0 for no effect and ±100 for the full control effect; potency is read from the fitted curve at half-maximal effect; tags tell the direction and shape of the fitted curve.

With `O=c1[nH]c(=O)n(-c2ccccc2)c2c1C(C(F)(F)F)(C(F)(F)F)N=C(CCC1CCCCC1)N2` as the compound, how does the Potency read?
The Potency was inconclusive [inhibitor, single point].

For `COc1ccc(CN2C[C@@H](CO)O[C@@H](n3cnc4c(NCCO)ncnc43)C2)cc1`, which Potency is on record?
The Potency was inconclusive [inhibitor, partial curve, poor fit].

With `Cc1ccc(S(=O)(=O)N2CCN(C)CC2)c(C)c1N(C)S(=O)(=O)c1ccc(Cl)cc1` as the compound, how does the Potency read?
Its Potency is inconclusive [inhibitor, single point].

Which “activity change, negative = growth inhibition” value does the source give for `Cc1cccc(C(=O)N2CCc3cc(CNC(=O)COc4ccc(Cl)cc4)ccc32)c1` here?
The value was inactive: -28.4%.

Which “activity change, negative = growth inhibition” value does the source give for `CC1(C)C2CCC1(CS(=O)(=O)N1CCN(c3ccc(F)cc3)CC1)C(=O)C2` (stereo not given) here?
The value was inactive: -9.59%.

With `CCOC(=O)CNC(=O)CSc1nc(-c2cccc(C)c2)ns1` as the compound, how does the Potency read?
The Potency was inconclusive [inhibitor, single point].

Which Potency does the source give for `NC(=O)c1cc([N+](=O)[O-])ccc1NCc1ccc(O)cc1` here?
The Potency was inconclusive [inhibitor, single point].

For `COC(=O)c1cc2ccccn2c2c(C(=O)OC)c(C(=O)OC)cc1-2`, which “activity change, negative = growth inhibition” value is on record?
Its value is inactive: -27.9%.

Which Potency does the source give for `CCC(CO)Oc1cc(NCc2ccccc2C(F)(F)F)c2ncn(C(C)C)c2c1` (stereo not given) here?
Its Potency is active: 23.1 µM.

With `CCOc1cccc(C2c3[nH]c4ccccc4c3CCN2C(=O)CSc2ccccc2)c1` (stereo not given) as the compound, how does the Potency read?
Its Potency is inconclusive [inhibitor, single point].

For `CCN(CC)S(=O)(=O)c1cccc(C(=O)N[C@H](C(=O)Nc2nc3ccccc3s2)C(C)C)c1`, which Potency is on record?
Its Potency is inconclusive [inhibitor, full curve, poor fit].

With `COc1ccc(NC(=O)Cn2c(=O)n(CCc3ccccc3)c(=O)c3c4c(sc32)CCCC4)cc1` as the compound, how does the Potency read?
The Potency was inconclusive [inhibitor, single point].

For `C/C=C(\C)C(=O)O[C@H]1C[C@@]2(C)CCC(C(C)C)C2(O)CC[C@@]1(C)O` (stereo not given in full), which activity change, negative = growth inhibition is on record?
Its activity change, negative = growth inhibition is inactive: -8.36% [at 9.04 µM].

For `COc1ccc(/C=C(/NC(=O)c2ccccc2OC)C(=O)Nc2ccc(C(=O)O)cc2)cc1`, which “activity change, negative = growth inhibition” value is on record?
Its value is inactive: 17.8%.

For `CCN(Cc1ccccc1)c1cc2c(c3c1ccn3C)C1CCC2O1` (stereo not given), which Potency is on record?
Its Potency is inconclusive [inhibitor, single point].

For `Cc1ccccc1Nc1c(-c2ccc(Cl)cc2)nc2c(C)cccn12`, which Potency is on record?
Its Potency is inconclusive [inhibitor, single point].

For `CCc1ccc(S(=O)(=O)NC(=S)Nc2ccccc2)cc1`, which Potency is on record?
Its Potency is inconclusive [inhibitor, single point].

Which Potency does the source give for `COc1ccc(NC(=O)N2CCc3ccccc3C2)cc1` here?
The Potency was inconclusive [inhibitor, single point].

For `CSc1ccc(CNC(=O)C2(C)CCCN2CC(C)C)cc1` (stereo not given), which Potency is on record?
The Potency was active: 18.4 µM.

For `N#Cc1c(C#N)c(-c2ccccc2)n(-c2ccccc2)c1N`, which Potency is on record?
Its Potency is active: 14.6 µM.

For `Cc1ccc(C)c(OCc2cc(C(=O)NC(C)c3cnn(C)c3)no2)c1` (stereo not given), which Potency is on record?
The Potency was inconclusive [inhibitor, single point].

Which “activity change, negative = growth inhibition” value does the source give for `O=C(c1cc(-c2ccc(Cl)cc2)on1)N1CCOCC1` here?
The value was inactive: -26.8%.

With `Cc1cccc(C(=O)O/N=C(\N)c2ccc(Br)cc2)c1` as the compound, how does the “activity change, negative = growth inhibition” value read?
The value was inactive: -17.8%.

For `CC(CC(=O)Nc1ccc2c(c1)c(=O)n(C)n2Cc1ccc(F)cc1)c1ccccc1` (stereo not given), which Potency is on record?
Its Potency is active: 20.6 µM.

For `COc1ccc(CN(C)C(=O)Cn2ccc(N)nc2=O)cc1OC`, which “activity change, negative = growth inhibition” value is on record?
Its value is inactive: 0.682%.

With `CCOC(=O)N1C2c3ccccc3C(c3ccccc32)N1C(=O)OCC` as the compound, how does the Potency read?
Its Potency is inconclusive [inhibitor, partial curve].

Which Potency does the source give for `Cc1ccc(OCc2nc(C#N)c(N3CCN(Cc4ccccc4)CC3)o2)cc1` here?
Its Potency is active: 18.4 µM.

For `CCCN(C(=O)CCOc1ccc(C(C)(C)C)cc1)c1c(N)n(Cc2ccccc2)c(=O)[nH]c1=O`, which Potency is on record?
Its Potency is inconclusive [inhibitor, single point].

With `O=C(COC(=O)c1cc(=O)[nH]c2ccccc12)Nc1ccc(F)cc1F` as the compound, how does the activity change, negative = growth inhibition read?
Its activity change, negative = growth inhibition is inconclusive: -11.8% [inhibitor].

For `Cc1ccccc1NC(=O)c1sc2nc3c(c(-c4ccco4)c2c1N)CCCC3`, which Potency is on record?
Its Potency is active: 16.4 µM.

For `C=CCn1c(=NC(=O)CC)n(C)c2ccccc21`, which Potency is on record?
Its Potency is inconclusive [inhibitor, single point].

With `Cc1ccccc1NC(=O)CSc1cn(CC(=O)N2CCCCCC2)c2ccccc12` as the compound, how does the Potency read?
The Potency was inconclusive [inhibitor, single point].

Which Potency does the source give for `CCN(CC)S(=O)(=O)c1ccc2oc(Nc3ccc4c(c3)OCCO4)nc2c1` here?
The Potency was active: 16.4 µM.

Which Potency does the source give for `O=c1/c(=C\c2cccn2-c2ccccc2)sc2nc3ccccc3n12` here?
The Potency was inconclusive [inhibitor, single point].

Which Potency does the source give for `COc1cc2c(=O)c(C(=O)c3ccc(C)c(C)c3)cn(Cc3ccc(F)cc3)c2cc1OC` here?
Its Potency is active: 10.3 µM.

For `CC1CCN(CCCCOc2cccc(Br)c2)CC1`, which Potency is on record?
The Potency was inconclusive [inhibitor, partial curve].

Which Potency does the source give for `CCCCC[C@H](O)/C=C/[C@H]1CCC(=O)[C@@H]1CCCCCCC(=O)N1CCCCC1CO` (stereo not given in full) here?
The Potency was active: 23.1 µM.

For `CCC(CC)c1nn2c(=O)cc(COc3ccc(NC(=O)c4ccccc4C)cc3)nc2s1`, which Potency is on record?
The Potency was inconclusive [inhibitor, full curve].

Which “activity change, negative = growth inhibition” value does the source give for `COc1ccc(-c2nnc(N(C)C(=O)C3CCCO3)s2)cc1` (stereo not given) here?
The value was inactive: -9%.

Which Potency does the source give for `Cc1ccc(S(=O)(=O)NCC(=O)NCC(=O)N(C)Cc2ccc(Br)s2)cc1C` here?
The Potency was inconclusive [inhibitor, single point].

With `CC(C)C(=O)N1CCCC1(C)C(=O)NCc1ccccn1` (stereo not given) as the compound, how does the “activity change, negative = growth inhibition” value read?
Its value is inactive: -18.3%.

Which Potency does the source give for `COc1ccc(NC(=O)/C(C#N)=C\c2ccc(N3CCOCC3)o2)cc1` here?
The Potency was inconclusive [inhibitor, single point].

Which Potency does the source give for `O=C(NC(=S)Nc1ccc2c(c1)OCCO2)c1ccccc1` here?
Its Potency is inconclusive [inhibitor, partial curve].

Which “activity change, negative = growth inhibition” value does the source give for `O=c1c(Cc2c(F)cccc2Cl)c(O)ccn1CCCN1CCOCC1` here?
The value was inactive: 2.96%.

For `COc1ccc(C(=O)Nc2cc3c(cc2N2CCOCC2)n(C)c(=O)n3C)cc1OC`, which Potency is on record?
Its Potency is inconclusive [inhibitor, single point].

With `O=C(NC1CCCC1)c1nc(-c2ccco2)oc1-c1ccccc1` as the compound, how does the Potency read?
The Potency was inconclusive [inhibitor, single point].

Which “activity change, negative = growth inhibition” value does the source give for `C/C(Nc1ccc(Cl)c(Cl)c1)=C1/CCOC1=O` here?
Its value is inactive: -3.7%.

For `NS(=O)(=O)c1ccc(SCc2ccccc2)nc1`, which “activity change, negative = growth inhibition” value is on record?
The value was inactive: -3.89%.

With `CCC1CN(S(=O)(=O)c2cc(-c3cc(C)no3)ccc2C)c2cc(Cl)ccc2O1` (stereo not given) as the compound, how does the Potency read?
Its Potency is active: 13 µM.

With `CS(=O)(=O)N1CCC[C@@]2(CCN(C(c3ccccc3)c3ccccc3)C2)C1` as the compound, how does the Potency read?
Its Potency is inconclusive [inhibitor, single point].

With `CCC(C)NC(=O)CSc1nnc(-c2ccc(C(C)(C)C)cc2)n1C` (stereo not given) as the compound, how does the Potency read?
The Potency was inconclusive [inhibitor, partial curve, poor fit].

Which Potency does the source give for `Cc1ccccc1NC(=O)c1ccc2[nH]c(C)c(C)c2c1` here?
The Potency was inconclusive [inhibitor, single point].

With `COc1ccccc1C(=O)N/C(=C\c1cn(C)c2ccccc12)C(=O)N1CCOCC1` as the compound, how does the Potency read?
Its Potency is inconclusive [inhibitor, partial curve].

For `CCn1cc(C(c2ccccc2)C(C(C)=O)[N+](=O)[O-])c2ccccc21` (stereo not given), which activity change, negative = growth inhibition is on record?
The activity change, negative = growth inhibition was inconclusive: -31.4% [inhibitor].

For `O=C(CSc1nc2[nH]ncc2c(=O)n1-c1ccccc1)NCCc1ccccc1`, which “activity change, negative = growth inhibition” value is on record?
The value was inactive: -1.95%.

For `COc1ccc(C)cc1NC(=O)CSc1nnc(COc2ccc(Cl)cc2)n1Cc1ccco1`, which Potency is on record?
The Potency was inconclusive [inhibitor, single point].

For `Cc1[nH]c2ccccc2c1CC#N`, which Potency is on record?
Its Potency is inconclusive [inhibitor, single point].

For `Cc1ccc(/C=C(\C#N)C(=O)NC(C)c2ccccc2)o1` (stereo not given), which “activity change, negative = growth inhibition” value is on record?
The value was inactive: 0.379%.

For `COc1cccc(Cn2c(=O)cc(C)c3c(C)nn(C)c32)c1`, which Potency is on record?
Its Potency is inconclusive [inhibitor, single point].

Which Potency does the source give for `Cn1ccc2c(N(Cc3ccccc3)Cc3ccccc3)cc3c(c21)C1CCC3O1` (stereo not given) here?
The Potency was inconclusive [inhibitor, single point].

With `CCn1c(=O)c(=O)[nH]c2cc(C(=O)NCc3ccc(F)cc3)ccc21` as the compound, how does the “activity change, negative = growth inhibition” value read?
The value was inactive: 17.2%.

With `Cc1sc2ncnc(N3CCCCC3C)c2c1C` (stereo not given) as the compound, how does the Potency read?
The Potency was inconclusive [inhibitor, single point].

With `CCc1cccc(C)c1NC(=O)CCS(=O)(=O)c1cc(Br)cc2c1N(C(=O)C1CC1)CC2` as the compound, how does the Potency read?
The Potency was inconclusive [inhibitor, single point].

With `O=S(=O)(/C=C/c1ccccc1)Nc1ccc2c(c1)OCO2` as the compound, how does the “activity change, negative = growth inhibition” value read?
The value was inactive: 2.78%.

For `COc1ccc(C(=O)NCC(c2cccnc2)N2CCN(c3ccccc3)CC2)cc1` (stereo not given), which Potency is on record?
The Potency was inconclusive [inhibitor, single point].

Which Potency does the source give for `CCCc1nn2c(=O)cc(COC(=O)c3cccc(NC(=O)c4cccs4)c3)nc2s1` here?
The Potency was inconclusive [inhibitor, single point].

For `Cc1cccc(OCC(=O)NCC(=O)N/N=C/c2cc(Br)cc(Br)c2O)c1`, which Potency is on record?
The Potency was inconclusive [inhibitor, single point].

For `O=C(Cc1cccs1)N(CC1CCCO1)C1(C(=O)NC2CCCCC2)CCCCC1` (stereo not given), which Potency is on record?
The Potency was inconclusive [inhibitor, single point].

With `COC(=O)c1cc(=O)n(CCc2ccccc2)c(=Nc2ccc(F)cc2)s1` as the compound, how does the Potency read?
The Potency was inconclusive [inhibitor, single point].

With `CC1CCN(C(=O)c2ccccc2NC(=O)Cc2ccccc2)CC1` as the compound, how does the “activity change, negative = growth inhibition” value read?
Its value is inactive: -0.159%.
